Experimental data taken from the supplement of paper PMC9513381.
Recombinant human monoclonal antibodies (heavy:light variable regions). ELISA EC50 on the named antigen, from 10 µg/ml down; IC50 / IC90 against spike pseudovirus on 293T-ACE2 cells, 48 h; lower = stronger. Calls: IC50 above 1,000 ng/ml = non-neutralizing; EC50 above 1,000 ng/ml = non-binder. The source prints 1000 for neutralization that was not reached; it is given as >1000 ng/ml. Only binders of the Wuhan-Hu-1 domain have neutralization values.

B1: B2087 (protein)
chain 1: EVQLVESGGGLVQPGRSLRLSCAASGFTFDNHAMHWVRQAPGKGLEWVSGVSWNSGTIGYADSVKGRFIIIRDNAKNSLYLQMNRLRPEDTALYYCAKDGSFLDTDHFYFDYWGQGTLVTVSS
chain 2: QSVLTQPPSVSAAPGQKVTISCSGTSSNIGNNYVSWYQQLPGIAPKLLIYDNNKRPSGIPDRFSGSKSGTSATLGITGLQTGDEADYYCGTWDSGLSAVVFGGGTKLTVL
B2: B2096 (protein)
chain 1: EVQLVESGGGLIQPGGSLRLSCAASGLTVSSNYMSWVRQAPGKGLEWVSVIYSGGSTFYSDSVKGRFTISRDNSKNTLYLQMNSLRAEDTAVYYCARDRKENYFDYWGQGTLVTVSS
chain 2: QSALTQPASVSGSPGQSIIISCTGTSSDVGGFHYVSWYQQHPGKAPKLMIYDVSNRPSGVSNRFSGSKSGNTASLTISGLQPEDEADYYCSSYTSGSTLFYVFGTGTKVTV
B3: B2090 (protein)
chain 1: EVQLVESGGGLVQPGGSLRLSCAASGFTFSSYDMHWVRQETGKGLEWVSAIGTAGDTYYLGSVKGRFTISRENAKNSLYLQMNSLRAGDTAVYYCARAGNGYNLGSWYFDLWGRGTLVTVSS
chain 2: DIQLTQSPSSLSASVGDRVTITCRASQFISSYLNWYQQKPGKAPKLLIYAASTLQSGVPSRFSGGGSGTDFTLTISSLQREDFATYYCQQSYSMPPISFGQGTRLEIK
B4: B2088 (protein)
chain 1: QVQLQESGPGLVKPSQTLSLTCTVSGGSISSSDYYWSWVRQRPGKGLEWIGYAYYTGITYYNPSLKSRLTISVDTSKNQFSLRLSSVTAADTAVYYCARIGRPFGVVPGFDNWGQGTLVTVSS
chain 2: QSALTQPASVSGSPGQSTTISCTGTSGDVGSYDLVSWYQHHPGKAPKLMIYEVTKRPSGVSNRFSGSKSGNTASLTISGLQAEDEADYYCCSYAGSSAVIFGGGTKLTVL
B5: B2095 (protein)
chain 1: QVQLQESGPGLVKASETLSLTCTVSGDSISRYYWSWIRQPPGKGLEWIGYIYDSRSTNYNPSLKSRVTISIDTSKNHFSLKLSSVTAADTAVYYCARHEVLTAILPYFDLWGRGTLVTVSS
chain 2: NFMLTQPHSVSESPGKTVTISCTRSSGSIDSNYVQWYQQRPGSAPTTVIFEDNQRPSGVPDRFSGSIDTSSNSASLTISGLKTEDEADYYCQSYDSSIHVVFGGGTKLTVL
B6: B002 (protein)
chain 1: QVQLVESGGGVVQPGRSLRLSCAASGFTFGKYGMHWVRQAPGKGLEWVAGISYDGDYKDYADSLKGRVTISRDNSNNKMYLQMNSLRAEDTAVYYCAKKISEYCGGDCHTAYFDYWGQGTLVTVSS
chain 2: DIQMTQSPVSLSASVGDRVTITCQASHDIANSLIWYQQRPGKAPKSLIYDASNLEAGVPSRFSGSGSGTDFSLTISSLQPEDLATYYCQQYHNMPLTFGGGTKVQTK
B7: B2093 (protein)
chain 1: QVQLVESGGGVVQPGNSLRLSCAASGFTFSTYGMHWVRQAPGKGLEWVAIIWYDGNNKFYGDSVKGRFTISRDNSKNKLYLQMNSLRAEDTAVYYCARSGIRFSEWLLQDYWGQGTLVTVSS
chain 2: EIVLTQSPGTLSLSPGERATLSCRASQSISISYLAWYQQKPGQAPRLLIYGASSRATGIPDRFSGSGSGTDFTLTISRLEPEDFAVYYCQQFGSTRATFGQGTKLEIK

Columns and labels:
[1] = molecular target: SARS-CoV-2 Wuhan-Hu-1 spike pseudovirus; test: pseudovirus neutralization IC50; higher = weaker neutralization
Experimental: (§1)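 Single-round luciferase reporter pseudovirus mixed with antibody dilutions and put on 293T-ACE2 cells for 48 h; signal relative to no-antibody wells, four-parameter fit.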

[2] = molecular target: SARS-CoV-2 Wuhan-Hu-1 spike pseudovirus; test: pseudovirus neutralization IC90; higher = weaker neutralization
Experimental: as §1

[3] = molecular target: SARS-CoV-2 Delta (B.1.617.2) spike RBD; test: ELISA binding EC50; higher = weaker binding; ELISA of recombinant human antibody on coated antigen, from 10 µg/ml in fourfold dilutions; four-parameter fit.
[4] = molecular target: SARS-CoV-2 Omicron BA.1 spike protein; test: as above
[5] = molecular target: SARS-CoV-2 Wuhan-Hu-1 spike receptor-binding domain; test: as above

Row | Binder | pseudovirus neutralization IC50 [1] [µg/mL] | pseudovirus neutralization IC90 [2] [µg/mL] | ELISA binding EC50 [3] [µg/mL] | ELISA binding EC50 [4] [µg/mL] | ELISA binding EC50 [5] [µg/mL]
1 | B1 | 0.0155 | 0.386 | 0.0117 | 0.0317 | 0.00248
2 | B2 | 0.0217 | 0.141 | 0.0916 | > 1 | 0.011
3 | B3 | > 1 | > 1 | 0.0348 | 0.31 | 0.00543
4 | B4 | > 1 | > 1 | 0.0347 | 0.222 | 0.00465
5 | B5 | 0.016 | 0.186 | 0.0473 | 0.03 | 0.00677
6 | B6 | > 1 | > 1 | 0.00639 | 0.00602 | 0.00296
7 | B7 | > 1 | > 1 | > 1 | > 1 | 0.00377
